{
  "source": "PubChem BioAssay AID1347165",
  "about": "(National Center for Advancing Translational Sciences (NCATS), 2019)",
  "note": "Among all 220,000 compounds or so, about 5,700 (2.6%) were called active. The shares of active, inactive and inconclusive entries below differ from those in the screen. The call rests on the fitted dose curve; in most records, active means well fitted inhibition curve with a large enough effect; inconclusive means small, poorly fitted or top-dose-only effect; inactive means no such curve, though single readings can be large or run the other way. A potency beside an inconclusive call is a rough fit, not a confirmed value. Potency means the concentration at half of the fitted maximal effect; tags describe the fitted curve by direction and shape.",
  "data": [
    {"biological_target": "Lysine-specific demethylase 5B (Homo sapiens) (UniProt Q9UGL1)", "sequence (Q9UGL1 whole entry, looked up)": "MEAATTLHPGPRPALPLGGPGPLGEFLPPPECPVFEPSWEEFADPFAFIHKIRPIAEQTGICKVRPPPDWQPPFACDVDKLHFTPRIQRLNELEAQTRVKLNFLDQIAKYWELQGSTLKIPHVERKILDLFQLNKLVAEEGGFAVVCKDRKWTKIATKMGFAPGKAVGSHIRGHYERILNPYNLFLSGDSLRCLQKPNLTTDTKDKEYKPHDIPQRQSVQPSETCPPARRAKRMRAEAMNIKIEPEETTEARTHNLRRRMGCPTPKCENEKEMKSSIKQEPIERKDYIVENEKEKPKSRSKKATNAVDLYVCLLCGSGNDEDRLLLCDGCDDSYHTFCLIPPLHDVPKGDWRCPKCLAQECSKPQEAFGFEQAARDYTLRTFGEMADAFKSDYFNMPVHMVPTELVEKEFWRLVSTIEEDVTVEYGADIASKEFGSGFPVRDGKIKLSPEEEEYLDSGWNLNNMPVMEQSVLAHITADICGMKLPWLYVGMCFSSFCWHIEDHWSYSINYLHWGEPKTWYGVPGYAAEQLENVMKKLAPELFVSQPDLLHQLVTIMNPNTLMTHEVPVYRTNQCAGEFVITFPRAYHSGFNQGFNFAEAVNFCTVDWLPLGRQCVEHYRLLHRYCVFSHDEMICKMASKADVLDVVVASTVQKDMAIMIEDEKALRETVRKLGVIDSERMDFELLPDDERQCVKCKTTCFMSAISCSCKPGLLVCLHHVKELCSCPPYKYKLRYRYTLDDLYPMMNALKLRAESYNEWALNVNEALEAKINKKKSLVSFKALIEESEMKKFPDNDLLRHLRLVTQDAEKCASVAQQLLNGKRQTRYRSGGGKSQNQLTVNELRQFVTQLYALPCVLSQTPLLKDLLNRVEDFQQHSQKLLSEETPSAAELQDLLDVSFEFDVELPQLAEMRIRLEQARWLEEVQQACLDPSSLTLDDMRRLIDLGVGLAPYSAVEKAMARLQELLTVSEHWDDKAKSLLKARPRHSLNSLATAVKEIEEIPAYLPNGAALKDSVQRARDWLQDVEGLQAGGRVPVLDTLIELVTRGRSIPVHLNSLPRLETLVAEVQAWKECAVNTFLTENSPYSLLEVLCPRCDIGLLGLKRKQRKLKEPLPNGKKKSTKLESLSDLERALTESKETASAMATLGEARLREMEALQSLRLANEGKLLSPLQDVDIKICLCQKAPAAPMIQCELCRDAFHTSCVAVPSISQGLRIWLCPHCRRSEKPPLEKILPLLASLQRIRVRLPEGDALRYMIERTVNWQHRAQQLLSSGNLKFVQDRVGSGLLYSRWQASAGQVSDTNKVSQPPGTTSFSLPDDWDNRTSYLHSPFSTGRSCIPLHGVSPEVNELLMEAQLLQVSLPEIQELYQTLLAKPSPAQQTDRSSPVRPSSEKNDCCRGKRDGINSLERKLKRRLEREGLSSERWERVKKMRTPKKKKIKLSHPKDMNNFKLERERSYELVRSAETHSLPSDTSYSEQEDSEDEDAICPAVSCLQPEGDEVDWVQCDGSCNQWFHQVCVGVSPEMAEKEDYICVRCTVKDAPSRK", "assay": "Primary screen for KDM5B Histone Demethylases FDH-coupled qHTS; further: nearly all actives have a fitted effect of over 70% in size; on activity change, negative = inhibition: 0% is about no effect", "conditions": "FDH-coupled NADH fluorescence (FDH is formaldehyde dehydrogenase); activity change, negative = inhibition: at 57.7 µM (top of the series) unless noted", "how_it_was_run": "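KDM5BΔAP (200 nM final) in 50 mM HEPES pH 7.5, 0.01% Tween-20 was preincubated 10 min at RT with compound over a concentration range. Substrate mix (H3K4me3 12.5 µM, α-KG 25 µM, Fe²⁺, ascorbate, NAD⁺, FDH) was added, and NADH fluorescence change over 30 min gave dose-response curves.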", "values": [
      {"smiles": "CC(C(=O)N(C)Cc1ccccc1)S(=O)(=O)Cc1ccc(Cl)c(Cl)c1", "note": "(stereo not drawn)", "activity change, negative = inhibition": "inactive: 5.44%"},
      {"smiles": "O=C(NCc1ccc(Cl)nc1)c1cnn2ncccc12", "Potency": "active: 31.6 µM"},
      {"smiles": "COc1cccc(C(=O)NC2CCCCC2)c1", "activity change, negative = inhibition": "inactive: 26.7%"},
      {"smiles": "CC(C)CCN1CCc2c(sc3ncnc(N4CCN(C)CC4)c23)C1", "Potency": "inconclusive: 28.2 µM [inhibitor, partial curve, poor fit]"},
      {"smiles": "O=C(c1ccc2cc[nH]c2c1)N1CCCC(c2nn[nH]n2)C1", "note": "(stereo not drawn)", "Potency": "active: 22.4 µM"},
      {"smiles": "Cc1cccc(CNC(=O)c2c(C)noc2-c2cccs2)c1", "Potency": "active: 28.2 µM"},
      {"smiles": "Cc1cccc(C(=O)N2CCCN(c3nnc4ccccn34)CC2)c1", "Potency": "active: 28.2 µM"},
      {"smiles": "COC1CN(c2cccc(F)c2)C12CCN(C(=O)CC1CCN(C(C)=O)CC1)CC2", "note": "(stereo not drawn)", "activity change, negative = inhibition": "inactive: -27.9%"},
      {"smiles": "COc1ccc2ccc(OC(=O)c3ccccc3)cc2c1", "activity change, negative = inhibition": "inactive: 7.17%"},
      {"smiles": "CC(C)C[C@@H]1N[C@H](C(=O)O)Cc2cn(CC3CC3)c3cccc1c23", "Potency": "active: 31.6 µM"},
      {"smiles": "CC(C)N1CCC(CNC(=O)CCc2c[nH]c3ccccc23)C1", "note": "(stereo not drawn)", "activity change, negative = inhibition": "inactive: 1.55%"},
      {"smiles": "COc1ccccc1C1C=C(c2ccc(F)cc2)Nc2nc(-c3ccc(Cl)cc3)nn21", "note": "(stereo not drawn)", "Potency": "inconclusive: 31.6 µM [inhibitor, single point]"},
      {"smiles": "CCOc1ccc(CCNC(=O)CCc2c(C)nc3c4c(C)cc(C)nc4nn3c2C)cc1", "Potency": "inconclusive: 1.58 µM [inhibitor, full curve, poor fit]"},
      {"smiles": "Cc1nc(N2CCC(C(=O)NCc3cccc(Cl)c3)CC2)cc(C(F)(F)F)n1", "Potency": "inconclusive: 35.5 µM [inhibitor, single point]"},
      {"smiles": "COc1cc(/C=C/C(=O)OCC(=O)NC(=O)NC(C)C)ccc1O", "Potency": "inconclusive: 22.4 µM [inhibitor, partial curve, poor fit]"},
      {"smiles": "CN(C)C[C@@H]1CN(c2ncccn2)C[C@H]1NC(=O)c1ccc(Cl)s1", "Potency": "active: 28.2 µM"},
      {"smiles": "NS(=O)(=O)c1ccc(CCNC(=O)COc2ccc3ccc(=O)oc3c2)cc1", "Potency": "inconclusive: 25.1 µM [inhibitor, partial curve, poor fit]"},
      {"smiles": "N#CCCn1c(-c2ccccc2)cc2ccccc21", "Potency": "inconclusive: 31.6 µM [inhibitor, partial curve, poor fit]"},
      {"smiles": "CCOC(=O)c1ccc(-c2ccc(/C=C/C(=O)c3cccc(N4CCOCC4)c3)o2)cc1", "activity change, negative = inhibition": "inactive: 1.51%"},
      {"smiles": "O=c1cc(-c2cccnc2)oc2c(NCCc3ccccn3)nccc12", "activity change, negative = inhibition": "inactive: -11.8% [at 86.2 µM]"},
      {"smiles": "Cc1ccc(C(=O)Nc2ccc(C(=O)N/N=C/c3ccccn3)cc2)cc1", "Potency": "inconclusive: 39.8 µM [inhibitor, partial curve, poor fit]"},
      {"smiles": "CC(C)n1ncc2c(C(=O)Nc3ccccc3F)c3c(nc21)CCC3", "activity change, negative = inhibition": "inactive: -9.93%"},
      {"smiles": "O=C(c1ccoc1)N1CCCC(c2noc(COc3ccccc3)n2)C1", "note": "(stereo not drawn)", "activity change, negative = inhibition": "inactive: 28.3%"},
      {"smiles": "COc1ccccc1Nc1ncc2c(n1)CN(C(=O)Cc1ccc3c(c1)OCO3)CCN2", "Potency": "inconclusive: 17.8 µM [inhibitor, partial curve, poor fit]"},
      {"smiles": "CC(=O)N(c1nc(C)c(C(=O)Nc2ccc3cc[nH]c3c2)s1)C(C)C", "activity change, negative = inhibition": "inactive: 12%"},
      {"smiles": "Cc1cc(C)c(C#N)c(SCc2cc(=O)oc3ccc(O)cc23)n1", "Potency": "inconclusive: 31.6 µM [inhibitor, single point]"},
      {"smiles": "CCN(CC(=O)NC)S(=O)(=O)N1CCC(C)CC1", "activity change, negative = inhibition": "inactive: 23.7%"},
      {"smiles": "CCCCN1C(=O)C(O)(c2c(C)[nH]c3ccccc23)c2cc(Br)ccc21", "note": "(stereo not drawn)", "Potency": "inconclusive: 15.8 µM [inhibitor, partial curve, poor fit]"},
      {"smiles": "CCCN(CCC)c1nn2c(=O)c(C(=O)NCc3cccc(OC)c3)cnc2s1", "Potency": "inconclusive: 28.2 µM [inhibitor, partial curve, poor fit]"},
      {"smiles": "Fc1ccc(CN2CCC3(CC2)CC(c2cccc(C(F)(F)F)c2)=NO3)cc1", "Potency": "inconclusive: 7.94 µM [inhibitor, partial curve, poor fit]"},
      {"smiles": "O=C1Nc2ccc(-c3ccsc3)cc2C(=O)N2C[C@@H](NS(=O)(=O)c3ccc(F)cc3)C[C@@H]12", "Potency": "inconclusive: 22.4 µM [inhibitor, single point]"},
      {"smiles": "CCOC(=O)C1=C(O)C(=O)N(c2ccc(S(N)(=O)=O)cc2)C1c1ccc([N+](=O)[O-])cc1", "note": "(stereo not drawn)", "Potency": "inconclusive: 25.1 µM [inhibitor, single point]"},
      {"smiles": "CCCn1cnc2c1CN(S(=O)(=O)c1cccc(C(F)(F)F)c1)[C@H](C(=O)OC)C2", "Potency": "active: 31.6 µM"},
      {"smiles": "CCOc1cc(C#N)c(NC(=O)c2ccc(C(C)(C)C)cc2)cc1OCC", "Potency": "inconclusive: 25.1 µM [inhibitor, single point]"},
      {"smiles": "COc1ccc(-c2nn(-c3ccccc3)cc2CN2CCOC(C)(C)C2)c(F)c1", "activity change, negative = inhibition": "inactive: -29.5%"},
      {"smiles": "COc1ccc(CC(=O)Nc2ccc(-c3nc4ccccc4s3)cc2Cl)cc1", "Potency": "inconclusive: 25.1 µM [inhibitor, partial curve, poor fit]"},
      {"smiles": "O=C(CSc1nc2nc[nH]c2c(=O)[nH]1)c1ccc(Br)cc1", "activity change, negative = inhibition": "inactive: -19.1%"},
      {"smiles": "CCONC(=O)C(C)Sc1ccccc1", "note": "(stereo not drawn)", "activity change, negative = inhibition": "inactive: -7.63%"},
      {"smiles": "CCN1CCN(C(c2cccc(Cl)c2)c2c(O)cc(C)n(CCOC)c2=O)CC1", "note": "(stereo not drawn)", "Potency": "inconclusive: 31.6 µM [inhibitor, single point]"},
      {"smiles": "CCOC(=O)c1oc2ccccc2c1COC(=O)CNC(=O)c1cccc(OC)c1", "activity change, negative = inhibition": "inactive: -5.83%"},
      {"smiles": "Cc1ccc(-c2nnc(SCC(=O)NCCC(C)C)nc2-c2ccc(C)cc2)cc1", "activity change, negative = inhibition": "inconclusive: -30.2% [inhibitor]"},
      {"smiles": "O=C(Nc1ccc(S(=O)(=O)Nc2ncccn2)cc1)C1=NN(c2ccccc2)C(=O)CC1", "Potency": "inconclusive: 20 µM [inhibitor, partial curve, poor fit]"},
      {"smiles": "C(=Nc1ccccc1-c1ccccc1N=Cc1ccc2ccccc2c1)c1ccc2ccccc2c1", "Potency": "inconclusive: 28.2 µM [inhibitor, partial curve, poor fit]"},
      {"smiles": "CC(C)(C)C(=O)N1CCN(c2nc3ncccc3o2)CC1", "Potency": "inconclusive: 35.5 µM [inhibitor, partial curve, poor fit]"},
      {"smiles": "COc1ccc(CN2CCNC(=O)C2CC(=O)NCc2ccco2)c(F)c1", "note": "(stereo not drawn)", "Potency": "active: 10 µM"},
      {"smiles": "O=C(NCC(O)c1ccc(F)cc1F)c1cnccn1", "note": "(stereo not drawn)", "activity change, negative = inhibition": "inactive: 11.5%"},
      {"smiles": "O=C1CC(c2ccccc2)Cc2[nH]c(=O)c(-c3nc(-c4ccc(F)cc4)cs3)cc21", "note": "(stereo not drawn)", "Potency": "inconclusive: 25.1 µM [inhibitor, partial curve, poor fit]"},
      {"smiles": "Cc1cc(C)cc(C(=O)NC(C)c2ccc(CC(C)C)cc2)c1", "note": "(stereo not drawn)", "activity change, negative = inhibition": "inactive: 25.2%"},
      {"smiles": "Cc1cccc(-c2noc([C@@H]3Cc4nc[nH]c4CN3C(=O)Nc3ccccc3)n2)c1", "Potency": "inconclusive: 35.5 µM [inhibitor, partial curve, poor fit]"},
      {"smiles": "COCCC(=O)N1CCCCCCNC(=O)[C@@H]2C[C@@H](C(=O)N3CCN(c4ccccn4)CC3)C[C@@H]21", "Potency": "inconclusive: 28.2 µM [inhibitor, partial curve, poor fit]"},
      {"smiles": "COc1ccc(C(=O)N[C@H]2CO[C@H]3[C@@H]2OC[C@@H]3Nc2nccc(-c3cccc(F)c3)n2)cc1", "Potency": "inconclusive: 31.6 µM [inhibitor, single point]"},
      {"smiles": "Cc1sc(-c2cc3ccccc3oc2=O)nc1-c1ccc(Cl)cc1", "Potency": "inconclusive: 15.8 µM [inhibitor, partial curve, poor fit]"},
      {"smiles": "CCC(NC(=O)c1cncc(Br)c1)c1ccccc1", "note": "(stereo not drawn)", "activity change, negative = inhibition": "inactive: 7.31%"},
      {"smiles": "CN(Cc1ccccc1)c1oc(-c2ccco2)nc1C#N", "Potency": "inconclusive: 25.1 µM [inhibitor, partial curve, poor fit]"},
      {"smiles": "O=C(c1ccsc1)N1CCCC(CN2CCCC2)CC1", "note": "(stereo not drawn)", "Potency": "inconclusive: 20 µM [inhibitor, partial curve, poor fit]"},
      {"smiles": "Cc1ccc(-c2cc(C(=O)Oc3ccccc3)c3cccc(C)c3n2)cc1", "Potency": "inconclusive: 6.31 µM [inhibitor, partial curve, poor fit]"},
      {"smiles": "COCc1nc2nc(-c3ccccc3)c(-c3ccc(OC)nc3)cc2n1C", "Potency": "active: 35.5 µM"},
      {"smiles": "O=C(NCCOc1ccccc1)C1CN(c2ccc(Cl)cc2)C(=O)N1", "note": "(stereo not drawn)", "activity change, negative = inhibition": "inactive: 14.9%"},
      {"smiles": "COC[C@@H]1CN(Cc2ccc(C)cn2)C[C@H]1C(=O)N(C)C", "Potency": "inconclusive: 12.6 µM [inhibitor, partial curve]"},
      {"smiles": "Cc1cn2nc(C(=O)NCc3ccc(C(F)(F)F)cc3)cc2c(N2CCSCC2)n1", "Potency": "active: 28.2 µM"},
      {"smiles": "CCOc1ccccc1CNC(=O)c1nn(C)c2c1CS(=O)(=O)c1ccccc1-2", "Potency": "inconclusive: 25.1 µM [inhibitor, partial curve, poor fit]"},
      {"smiles": "CC(C)c1ccc(CNc2nc(-c3ccco3)nn2S(=O)(=O)c2ccccc2)cc1", "Potency": "inconclusive: 25.1 µM [inhibitor, partial curve, poor fit]"},
      {"smiles": "Cc1ccc(NC(=O)Cn2cc(S(=O)(=O)N3CCN(c4ccccc4F)CC3)c3ccccc3c2=O)cc1F", "Potency": "inconclusive: 5.01 µM [inhibitor, full curve, poor fit]"},
      {"smiles": "COCCCNc1oc(-c2ccc(COc3cccc(C)c3)o2)nc1C#N", "Potency": "inconclusive: 14.1 µM [inhibitor, partial curve, poor fit]"},
      {"smiles": "COc1ccc(N2CCN(C(CNC(=O)c3ccc(C)cc3)c3ccc4c(c3)OCO4)CC2)cc1", "note": "(stereo not drawn)", "Potency": "inconclusive: 15.8 µM [inhibitor, partial curve, poor fit]"},
      {"smiles": "CNC(=O)c1ccc(CNC(=O)c2nccnc2N)cc1", "Potency": "inconclusive: 28.2 µM [inhibitor, partial curve, poor fit]"},
      {"smiles": "CCc1cc2c(SCC(=O)Nc3ccc(NC(C)=O)cc3)ncnc2s1", "Potency": "inconclusive: 25.1 µM [inhibitor, partial curve, poor fit]"},
      {"smiles": "Cc1ccc(C(NC(=O)N2CCN(C)CC2)C(Cl)(Cl)Cl)cc1F", "note": "(stereo not drawn)", "activity change, negative = inhibition": "inactive: -10.1%"}
    ]}
  ]
}
